# Measured values: PubChem BioAssay AID1030 (National Center for Advancing Translational Sciences (NCATS), 2008)
# “And” between values parts separate entries of the source, which are not always exact repeats. Equal values may be shown once. Out of some 220,000 compounds screened, about 16,000 (7.3%) were called active. Inconclusive means that the source gave no clear call. Such entries were picked first, then a sample of the others. Calls come from the whole dose curve; as a rule, active = well fitted inhibition curve with a large enough effect (not every such curve was filed as active); inconclusive = small, poorly fitted or top-dose-only effect, or another doubt; inactive = no such curve, though single readings can be large or run the other way. Potencies of inconclusive entries are doubtful fits and often do not repeat.
# Molecular target: Aldehyde dehydrogenase 1A1 (Homo sapiens) (UniProt P00352)
# Experiment: qHTS Assay for Inhibitors of Aldehyde Dehydrogenase 1 (ALDH1A1);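 for activity, negative = inhibition: plate controls were no enzyme wells and a reference inhibitor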
# Details: Purified ALDH1A1, NADH fluorescence, propionaldehyde substrate; series mostly up to 75.3 µM
# Potency is the fitted concentration of half-maximal effect; tags give direction and shape of the fitted curve.
# Chain of UniProt P00352 (P00352 whole entry, looked up): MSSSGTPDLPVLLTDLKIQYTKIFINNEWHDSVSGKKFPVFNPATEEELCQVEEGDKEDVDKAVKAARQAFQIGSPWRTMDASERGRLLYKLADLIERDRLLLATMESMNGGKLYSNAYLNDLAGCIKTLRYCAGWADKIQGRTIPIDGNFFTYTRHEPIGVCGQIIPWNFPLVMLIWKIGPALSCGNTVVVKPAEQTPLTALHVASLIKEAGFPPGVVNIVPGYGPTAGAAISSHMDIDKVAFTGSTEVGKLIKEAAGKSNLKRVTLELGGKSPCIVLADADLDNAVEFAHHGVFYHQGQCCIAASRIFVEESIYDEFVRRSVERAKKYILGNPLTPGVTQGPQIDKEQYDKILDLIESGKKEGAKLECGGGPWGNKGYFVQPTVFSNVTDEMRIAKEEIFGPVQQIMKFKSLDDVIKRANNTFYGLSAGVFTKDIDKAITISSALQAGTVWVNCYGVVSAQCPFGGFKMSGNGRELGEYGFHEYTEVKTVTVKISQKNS
Structure (SMILES),Potency,"activity, negative = inhibition"
Cc1cc(C(=O)CSc2n[nH]c(N)n2)c(C)n1-c1cc(F)ccc1F,"inconclusive: 22.4 µM [inhibitor, single point]",–
COc1ccc(C(=O)NCC2OCCc3ccccc32)cc1 (configuration not stated),"inconclusive: 31.6 µM [inhibitor, partial curve, poor fit]",–
CCOC(=O)c1ccc(CSc2n[nH]c(C)n2)o1,"inconclusive: 35.5 µM [inhibitor, single point]",–
O=C1C=C(NCc2ccco2)C2(CCCCC2)O1,"inconclusive: 25.1 µM [inhibitor, single point]",–
Cc1nn(C)c(C(=O)N2CCc3ccccc32)c1Cl,inactive,–
Cc1ccc(C2(C(F)(F)F)NC(=O)N3C(=C2C#N)Nc2ccccc23)cc1 (configuration not stated),inactive,–
Cc1ccc(NC(=O)CC2SC3=NCCN3C2=O)cc1 (configuration not stated),active: 3.55 µM,–
COc1ccc2c(c1)c1nc(SCC(C)C)n(CCO)c(=O)c1n2C,"inconclusive: 39.8 µM [inhibitor, single point]",–
CC(=O)NC(=S)Nc1cccc2c(C)cc(C)nc12,"inconclusive: 1.78 µM [inhibitor, partial curve]",–
Oc1ccc(C=Nc2cccc3ncccc23)c(O)c1,inactive,–
O=C(NC(=O)N1CCN(c2cccc(Cl)c2)CC1)c1ccccc1,"inconclusive: 44.7 µM [inhibitor, single point]",–
O=C(Nc1cccc(Br)c1)c1ccccc1-c1ccccc1,"inconclusive: 17.8 µM [inhibitor, single point]",–
Cc1ccc(C)c(Nc2nc3c(S(=O)(=O)c4ccccc4)nnn3c3ccccc23)c1,"inconclusive: 15.8 µM [inhibitor, single point]",–
Cc1cc(C)c(NC(=O)NC2CCCCC2)c(C)c1,inactive,–
FC(F)(F)C(Cl)Br (configuration not stated),"inconclusive: 37.7 µM [inhibitor, single point]",–
CCCc1cc(=O)oc2cc(C)cc(OCC(=O)O)c12,"inconclusive: 28.2 µM [inhibitor, partial curve]",–
O=C(NNC(=O)c1sc2ccccc2c1Cl)Nc1ccc(Cl)cc1,active: 8.91 µM,–
Cc1cc(C)nc(-n2nc(C)cc2NC(=O)c2cccc(S(=O)(=O)N3CCCCC3)c2)n1,"inconclusive: 39.8 µM [inhibitor, single point]",–
O=C(O)CN1C(=O)c2cccc3cccc(c23)C1=O,"inconclusive: 29.9 µM [inhibitor, single point] and inconclusive: 28.2 µM [inhibitor, partial curve]",–
C[C@H]1Cc2c(COc3ccccc3)nc3c(c2CO1)CN(C(=O)C1CCCCC1)CC3,–,inactive: -5.58% [at 13.5 µM]
CSc1sc(C(=O)NNC(C)=O)c2c1C=CCC2,"inconclusive: 39.8 µM [inhibitor, single point]",–
COc1ccc(NC(=O)N(CCC(C)C)C(C)c2ccccn2)c(OC)c1 (configuration not stated),active: 14.1 µM,–
CC1CCCC(NC(=O)C2CCN(S(=O)(=O)N3CCC4(CC3)OCCO4)CC2)C1C (configuration not stated),"inconclusive: 25.1 µM [inhibitor, partial curve]",–
CC(C)Cn1c(N)c(C(=O)CSc2ncnc3sc4c(c23)CCCC4)c(=O)n(C)c1=O,inactive,–

Structure (SMILES),Potency,"activity, negative = inhibition"
CCOC(=O)CN(C(=O)CSc1nnc(-c2ccncc2)n1CCCN(C)C)c1ccccc1,"inconclusive: 20 µM [inhibitor, partial curve, poor fit]",–
Cc1ccc(S(=O)(=O)N(C)CC(=O)NC2CCCC2)cc1,inactive,–
Cc1cccc(NC(=S)N2CCCC(c3nc4ccccc4[nH]3)C2)c1 (configuration not stated),inactive,–
O=C(Nc1ccccn1)C1CCN(S(=O)(=O)c2cccc3nonc23)CC1,active: 28.2 µM,–
CC(=O)Nc1cccc(NC(=O)c2ccc(C)c([N+](=O)[O-])c2)c1,inactive,–
Cc1c(-c2ccccc2)oc2c(C(=O)OCC(=O)Nc3cccc(F)c3)cccc2c1=O,"inconclusive: 39.8 µM [inhibitor, single point]",–
Cc1ccc(-c2ccc(/C=N/n3cnnc3)o2)cc1,"inconclusive: 18.9 µM [inhibitor, partial curve]",–
CCc1cc(C(=O)NNC(=S)Nc2ccccc2C)cs1,active: 25.1 µM,–
O=C(Nc1cc(C(=O)N2CCCC2)ccc1N1CCCC1)c1ccccc1F,"inconclusive: 28.2 µM [inhibitor, partial curve]",–
CC(C)Cn1c2c(c(O)c(C(=O)Nc3nccs3)c1=O)CCCC2,active: 14.1 µM,–
c1ccc(Nc2nc(-c3cccnc3)nc3ccccc23)cc1,"inconclusive: 39.8 µM [inhibitor, single point]",–
Cc1nc(N2CCN(Cc3ccc4c(c3)OCO4)CC2)nc2c1C(=O)CC(c1ccco1)C2 (configuration not stated),"inconclusive: 39.8 µM [inhibitor, single point]",–
Cc1ccc(Nc2ccc([N+](=O)[O-])nc2[N+](=O)[O-])cc1,"inconclusive: 35.5 µM [inhibitor, single point]",–
COc1ccc(CNC(=O)C2CCCN2S(=O)(=O)c2ccc(F)cc2)cc1 (configuration not stated),inactive,–
NC(=O)c1nsnc1-c1ccccc1O,inactive,–
O=C(COC(=O)C1(c2ccc(Cl)cc2)CCCC1)NCc1ccco1,"inconclusive: 35.5 µM [inhibitor, single point]",–
O=C(NCc1n[nH]c(=S)n1-c1cccc(Cl)c1)c1ccc(S(=O)(=O)N2CCCC2)cc1,active: 4.47 µM,–
O=S(=O)(NCCc1ccccc1)c1ccc(Cl)nc1,inactive,–
O=C1C(Cl)=C(Nc2ccc(S(=O)(=O)Nc3ccccn3)cc2)C(=O)c2ccccc21,active: 0.631 µM,–
Cc1cccc(Nc2nnc(SC/C(O)=C(\C#N)c3nc4ccccc4[nH]3)s2)c1,"inconclusive: 39.8 µM [inhibitor, single point]",–
Cc1ccc(NC(=O)Cn2nnc3ccccc3c2=O)cc1C,inactive,–
NC(=O)C1CCN(C(=O)c2cc(S(=O)(=O)N3CCOCC3)c(Cl)cc2Cl)CC1,inactive,–
COCCOC(=O)C1=C(C)NC2=C(C(=O)CCC2)C1c1ccc(N(C)C)cc1 (configuration not stated),"inconclusive: 35.5 µM [inhibitor, single point]",–
